Test results taken from paper PMC12434519 (ACS Medicinal Chemistry Letters, 2025).
Where “and” joins values, the source holds several entries; their conditions need not be identical. Equal entries are not always repeated. Where two headings read alike, the source gives them in different places.

Columns and labels:
SARS-CoV-2 NSP14 [1] = target: T1, SARS-CoV-2 NSP14 (Severe acute respiratory syndrome coronavirus 2, UniProt P0DTD1); assay: biochemical; conditions: for NSP14 SARS COV2 : Hill slope: Sheet2
SARS-CoV-2 NSP14 [2] = target: T1, SARS-CoV-2 NSP14; conditions: for TM of NSP14 + SAH + compound (ternary complex) / TM of NSP14 + compound (absence of SAH): DSF, n = 3; for TM of NSP14 + SAH + compound (ternary complex): NSP14 + SAH 47.3 °C; for TM of NSP14 + compound (absence of SAH): NSP14 alone […]; for TM Replicate 1 (ºC) (NSP14+SAH+cmpd): NSP14+SAH 47; for TM Replicate 1 (ºC) (NSP14+SAH+cmpd) / TM (ºC) (NSP14+compound): SBVS hits; for TM (ºC) (NSP14+compound): NSP14 alone 43; for ∆TM (°C) / Average Tm NSP14 (ºC) + compound + SAH: HTS hits; for Average Tm NSP14 (ºC) + compound + SAH: NSP14 + SAH 48.0
[3] = LUM % inhibition, read-out: SARS-CoV-2 NSP14 inhibition: IC50
[4] = LUM % inhibition, read-out: SARS-CoV-2 NSP14 inhibition: Maximum response
[5] = fit of concentration-response curve
[6] = n = 3, read-out: IC50 for the inhibition of SARS-CoV-2 NSP14 (95% CI)
[7] = 0.75 h, read-out: NSP14 SARS COV2 : Maximum measured (%)
[8] = HTS hits, Suppl. Table 3 Sheet1, read-out: IC50
[9] = HTS hits, Suppl. Table 3 Sheet2, read-out: NSP14 SARS COV2 : IC50
[10] = Sheet1, NSP14+SAH+compound vs NSP14+SAH
[11] = IC50 (µM), HTS hits, Suppl. Table 3 Sheet1
[12] = NSP14 SARS COV2 : IC50 (uM), HTS hits, Suppl. Table 3 Sheet2

Compound	IC50 (SARS-CoV-2 NSP14 [1]; [3]) [µM]	Emax (SARS-CoV-2 NSP14 [1]; [4]) [%]	SARS-CoV-2 NSP14 inhibition: Hill slope (SARS-CoV-2 NSP14 [1]; SBVS hits)	SARS-CoV-2 NSP14 inhibition: Hill slope (SARS-CoV-2 NSP14 [1]; [5])	IC50 (SARS-CoV-2 NSP14 [1]; [6]) [µM]	TM of NSP14 + SAH + compound (ternary complex) (SARS-CoV-2 NSP14 [2])	TM of NSP14 + compound (absence of SAH) (SARS-CoV-2 NSP14 [2]) [°C]	TM Replicate 1 (ºC) (NSP14+SAH+cmpd) (SARS-CoV-2 NSP14 [2])	TM (ºC) (NSP14+compound) (SARS-CoV-2 NSP14 [2])	Emax (SARS-CoV-2 NSP14 [1]; [7]) [%]	NSP14 SARS COV2 : Hill slope (SARS-CoV-2 NSP14 [1]; HTS hits)	IC50 (SARS-CoV-2 NSP14 [1]; [8]) [µM]	IC50 (SARS-CoV-2 NSP14 [1]; [9]) [µM]	∆TM (°C) (SARS-CoV-2 NSP14 [2]; [10])	∆TM (°C) (SARS-CoV-2 NSP14 [2]; Sheet2, compound + SAH vs SAH)	Average Tm NSP14 (ºC) + compound + SAH (SARS-CoV-2 NSP14 [2])	IC50 (SARS-CoV-2 NSP14 [1]; [11]) [µM]	IC50 (SARS-CoV-2 NSP14 [1]; [12]) [µM]
CCn1nc(C)c(C(=O)NCCc2ccc(CNC(=O)c3ccc4[nH]ncc4c3)cc2)c1C [RU-0834081, CCN1N=C(C)C(C(=O)NCCC2=CC=C(CNC(=O)C3=CC4=C(C=C3)NN=C4)C=C2)=C1C]	2.67	93.9	1.15	1.15	2.7	48.5 ± 0.0 °C and 48.5 °C	42.5 ± 0.5	48.5 ºC	43 ºC									
CC1(c2csc(Nc3ccccc3Cl)n2)CCC(=O)O1 (stereo not drawn) [RU-0325359, CC1(C2=CSC(NC3=CC=CC=C3Cl)=N2)CCC(=O)O1]										95.6	0.797	3.73	4.7	2.5	2.5	50.5 ºC		
Cc1cc(OCC(=O)N[C@@H](Cc2ccccc2)C(=O)O)c2c3c(c(=O)oc2c1)CCC3 [RU-0349619, CC1=CC(OCC(=O)N[C@@H](CC2=CC=CC=C2)C(O)=O)=C2C3=C(CCC3)C(=O)OC2=C1]										87.8	0.81			2.0	2.0	50.0 ºC	7.84	6.21
O=C(CSc1ncc(S(=O)(=O)c2ccc(Cl)cc2)c(=O)[nH]1)N1CCCc2ccccc21 [RU-0152463, C1(S(C2=CC=C(Cl)C=C2)(=O)=O)=CN=C(SCC(N2C3=C(CCC2)C=CC=C3)=O)NC1=O]										90.3	0.681	3.98		2.5	2.5	50.5 ºC		
COc1ccccc1-c1cc(C(=O)NC(C)c2cnn(-c3ccccn3)c2C)[nH]n1 (stereo not drawn) [RU-0032489, C1(C(NC(C2=CC(C3=CC=CC=C3OC)=NN2)=O)C)=C(C)N(C2=NC=CC=C2)N=C1]										80.4	0.959	7.23		0.5	0.5	48.5 ºC		
Cc1cc(C(=O)NCc2ccc(C(=O)NC(C)c3ccccc3C)nc2)ccc1O (stereo not drawn) [RU-0834146, CC1=CC(C(=O)NCC2=CN=C(C(=O)NC(C)C3=C(C)C=CC=C3)C=C2)=CC=C1O]	5.76	85.4	1.13	1.13	5.8	48.3 ± 0.3 °C and 48.3 °C	42.7 ± 0.3	48 ºC	43 ºC									
Cc1ccc(S(=O)(=O)Nc2nc3ccc(NC(=O)Cc4ccccc4)cc3s2)cc1 [RU-0359102, CC1=CC=C(S(=O)(=O)NC2=NC3=CC=C(NC(=O)CC4=CC=CC=C4)C=C3S2)C=C1]										70.9	1.48	11.9		0.5	0.5	48.5 ºC		
Cc1cc(C)c(C(=O)NCc2ccc(CNC(=O)c3ccc(O)c(C)c3)cc2)cn1 [RU-0834181, CC1=CC(C(=O)NCC2=CC=C(CNC(=O)C3=CN=C(C)C=C3C)C=C2)=CC=C1O]	4.74	87.6	1.04	1.04	4.7			48 ºC	43 ºC									
Cc1cccc(C(=O)NCC2CCC3(CN(C(=O)c4cc(C)c5[nH]ncc5c4)C3)O2)c1F (stereo not drawn) [RU-0834174, CC1=CC(C(=O)N2CC3(C2)CCC(CNC(=O)C2=CC=CC(C)=C2F)O3)=CC2=C1NN=C2]	6.1	81.8	1.1	1.1				48 ºC	43 ºC									
Cc1nccc(C(=O)NCC2CCC3(CN(C(=O)c4cc(C)c5[nH]ncc5c4)C3)O2)c1C (stereo not drawn) [RU-0834173, CC1=C2C(=CC(C(=O)N3CC4(C3)CCC(CNC(=O)C3=C(C)C(C)=NC=C3)O4)=C1)C=NN2]	5.29	88.5	1.06	1.06	5.3	49.3 °C		48 ºC	43 ºC									
Cc1ccc(SCCNC(=O)C2CCN(S(C)(=O)=O)c3cc(C)ccc3O2)cc1 (stereo not drawn) [RU-0377187, CC1=CC=C(SCCNC(=O)C2CCN(S(C)(=O)=O)C3=CC(C)=CC=C3O2)C=C1]										83.5	0.583	9.3		1.2	1.2	49.2 ºC		
Cc1cc(OCC(=O)N[C@@H](Cc2ccccc2)C(=O)O)c2c3c(c(=O)oc2c1)CCCC3 [RU-0349688, CC1=CC(OCC(=O)N[C@@H](CC2=CC=CC=C2)C(O)=O)=C2C3=C(CCCC3)C(=O)OC2=C1]										86.6	0.97			2.0	2.0	50.0 ºC	8.79	
COC(=O)c1ccc(Cl)c(NS(=O)(=O)c2c(C)cc(N3C(=O)CCS3(=O)=O)cc2C)c1 [RU-0347319, COC(=O)C1=CC(NS(=O)(=O)C2=C(C)C=C(N3C(=O)CCS3(=O)=O)C=C2C)=C(Cl)C=C1]										92.8	0.679		2.84	2.8	2.8	50.8 ºC		
Cc1ccc(NS(=O)(=O)c2ccc(-c3coc(C)n3)cc2)c(Br)c1 [RU-0373469, CC1=NC(C2=CC=C(S(=O)(=O)NC3=C(Br)C=C(C)C=C3)C=C2)=CO1]										78.1	0.931			1.2	1.2	49.2 ºC	6.42	6.83
